# Assay results from PubChem BioAssay AID1845217 (Molecular Pharmacology Branch, DTP, NCI, 2023).
# A number of entries come with more than one value. This is not the full list of results. An entry can have further records. The records of an entry are repeats in other runs, samples, wells, individuals or studies. Brackets with × give the number of equal values in this list.
# Test system: VA-ES-BJ tumor spheroid viability
# Test: Anticancer human tumor VA-ES-BJ cell line growth inhibition;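 also: spheroids exposed to compounds for seven days; percent of DMSO vehicle control viability so 100% = untreated growth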
# Conditions: stronger effect = lower value, spheroids with HUVEC and MSC
# Description: Multicellular complex tumor spheroid response to DNA repair inhibitors in combination with DNA-damaging drugs
# This study explores the anticancer activities of DNA-damaging drugs and inhibitors of DNA damage repair, both as single agents and in combinations. Complex tumor spheroids comprised of malignant cells, endothelial cells and mesenchymal stem cells served as an in vitro model for human solid tumors. This model system incorporates physiologically relevant features and patient-derived or established malignant cell lines with clinically relevant genetic alterations from many tumor types. Twenty-six patient-derived or established malignant cell lines were evaluated representing sarcoma, melanoma, small cell lung cancer (SCLC), non-small cell lung cancer (NSCLC), as well as bladder, ovarian and pancreatic cancers. The concentration ranges selected for each drug and investigational agent were based upon clinically achievable concentrations if the clinical Cmax of the agent was known.
# Compounds. The drugs and compounds olaparib (NSC753686), talazoparib (NSC767125), berzosertib (NSC777718), elimusertib (NSC800525), nedisertib (NSC802822), VX-984 (NSC792969), AZD-1390 (NSC803789), temozolomide (NSC362856), topotecan (NSC609699), trabectedin (NSC813783), staurosporine (NSC755774), and gemcitabine (NSC613327) were obtained from the National Cancer Institute (NCI) Developmental Therapeutics Program Chemical Repository. The FDA-approved anticancer drug set is available from the Developmental Therapeutics Program at https://dtp.cancer.gov/organization/dscb/obtaining/available_plates.htm. […] The stock solutions were prepared in dimethyl sulfoxide (DMSO, Sigma-Aldrich, St. Louis, MO, cat. D2650) at 400-fold the tested concentration and stored at -70 degrees C. Prior to their use, the stock solutions were diluted in fresh medium and the final DMSO concentration in the assay was 0.25% (v/v). All drugs and investigational agents were tested over a range starting from a high concentration at or near the clinical Cmax and decreasing in half-log increments. If the clinical Cmax for an agent had not been determined, the highest concentration tested was 10 microM.
# Cell Lines. The patient-derived cancer cell (PDC) lines: 156681-154-R-J1-PDC, 283228-195-R-J1-PDC, 287954-098-R-J1-PDC, 292921-168-R-J2-PDC, 349418-098-R-PDC, 425362-245-T-J1-PDC, 556581-035-R-J1-PDC, and BL0293-F563-PDC were received from the NCI Patient-Derived Models Repository (PDMR, https://pdmr.cancer.gov). The established cell lines HS-SY-2 (RRID:CVCL_8719), MPNST, and SYO-1 (RRID:CVCL_7146) were obtained from the Sloan Kettering Institute. The alveolar soft parts sarcoma cell line ASPS-1 (RRID:CVCL_S738) was established at the NCI and grown from internal seed stocks. The following established cell lines were purchased from the American Type Culture Collection (ATCC, Manassas, VA): G-401 (ATCC, cat. CRL-1441, RRID:CVCL_0270), SW982 (ATCC, cat. HTB-93, RRID:CVCL_1734), VA-ES-BJ (ATCC, cat. CRL-2138, RRID:CVCL_1785), NCI-H719 (ATCC, cat. CRL-5837, RRID:CVCL_1582), NCI-H196 (ATCC, cat. CRL-5823, RRID:CVCL_1509), NCI-H841 (ATCC, cat. CRL-5845, RRID:CVCL_1595), NCI-H1618 (ATCC, cat. CRL-5879, RRID:CVCL_1480), NCI-H1876 (ATCC, cat. CRL-5902, RRID:CVCL_1503), DMS 114 (ATCC, cat. CRL-2066; RRID:CVCL_1174), NCI-H211 (ATCC, cat. CRL-5824; RRID:CVCL_1529), and SW 1271 (ATCC, cat. CRL-2177, RRID:CVCL_1716). The small cell lung cancer cell line COR-L88 was purchased from Sigma-Aldrich (cat. 92031917-1VL, RRID:CVCL_1141). The non-small cell lung cancer cell lines NCI-H226 (RRID:CVCL_1544) and NCI-H322M (RRID:CVCL_1557) were established at the NCI and grown from internal seed stocks. Pooled donor human umbilical vein endothelial cells (HUVEC, Lonza, cat. CC-2519) and human mesenchymal stem cells (hMSC, Lonza, cat. PT-2501) were purchased from Lonza (Walkersville, MD).
# Cell Culture. All cells were maintained in an incubator at 37 degrees C and 5% CO2 with 95% humidity. […]
smiles,measurement,setting,value
CC[C@@]1(O)C(=O)OCc2c1cc1n(c2=O)Cc2cc3c(CN(C)C)c(O)ccc3nc2-1,"viability, T/C",compound alone 0.00949 µM,"68.5, 74.6, 91.1, 86.5, 81.2, 89.3, 94.5, 92.1, 99.9, 92.8%"
same,"viability, T/C",compound alone 0.03 µM,"24.1, 35.7, 47.8, 39.7, 38, 50, 52.7, 48.1, 45.4, 44.3%"
Cn1nnc2c(C(N)=O)ncn2c1=O,"viability, T/C",compound alone 31.6 µM,"107 (2×), 92.3, 99.8, 116, 108, 89.5, 103, 88, 96.1%"
COc1cc2c(cc1O)CCNC21CSC2c3c(OC(C)=O)c(C)c4c(c3C(COC1=O)N1C(O)C3Cc5cc(C)c(OC)c(O)c5C(C21)N3C)OCO4 (configuration not stated),"viability, T/C",compound 30 pM,"99.5, 98.7, 99.4, 96.4, 104, 85.6 (2×), 92.6, 133, 81.8%"
same,"viability, T/C",compound 94.9 pM,"94.2, 96.3, 93.4, 96.8, 95.7, 83.4, 77.8, 72.3, 124, 82.2%"
same,"viability, T/C",compound alone 0.0003 µM,"42.2, 46.8, 48.8, 52.3, 42.9, 38.6, 36.6, 44.2, 60.5, 35.2%"
CC1COCCN1c1cc(-c2ccnn2C)c2ccnc(-c3ccn[nH]3)c2n1 (configuration not stated),"viability, T/C",compound alone 0.1 µM,"52.2%, 61.5%, 6.72%"
